The values below come from PubChem BioAssay (NCI).

In the test the test system is NCI-H322M lung. The test is described as follows: DTP human tumour cell line panel, 48 h.

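Cultured in 96-well plates, cells were exposed to test compound for 48 hours across five concentrations. Here, GI50 denotes the concentration required for 50% inhibition of growth. At the TGI there is no net growth.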

The term TGI denotes the concentration giving total growth inhibition. Compound `NC(=O)NCCCC(NC(=O)OCCCCn1ccc(=O)[nH]c1=O)C(=O)O` (stereo not given) gave a TGI above 100 µM.
As a reminder, the GI50 is the concentration giving 50% growth inhibition. `CC1CCc2nc[nH]c(=O)c21` (stereo not given): the GI50 is above 100 µM and the TGI is above 100 µM.
The compound `OCC1=CC(NC2CC(CO)C(O)C(O)C2O)C(O)C(O)C1O` (stereo not given) returned a concentration for total growth inhibition (TGI) above 100 µM.
The same measure, in the same setting: the figure for `COc1ccc(COCCOCc2nc(C#N)c(N)o2)cc1` is above 100 µM; for `CC(C)=CCc1c2c(c3occ(-c4ccc(O)cc4)c(=O)c3c1O)CC(C(C)(C)O)O2` (stereo not given) it is 19.6 µM.
Consider `Cc1cc(Cc2cc(C)c(N)cc2N)c(N)cc1N`, for which the concentration for total growth inhibition (TGI) was above 100 µM.
For the compound `CCOC(=O)C(C)(C)Oc1ccc2c(-c3ccccc3)cc(=O)oc2c1`, the concentration for total growth inhibition (TGI) was above 100 µM.
Still for that read-out and setting: the result for `Cc1c(C(=O)C/C(=N/NC(=O)c2ccccc2O)C(=O)Nc2ccccc2C(C)C)[n+](=O)c2ccccc2n1[O-]` reads above 100 µM; that for `CN1CCc2cc(N)cc3c2C1Cc1ccc(O)c(O)c1-3` (stereo not given), above 100 µM.
On the same count and under the same terms, the figure for `c1csc(-c2ccc(-c3cccc4nsnc34)s2)c1` is above 100 µM.
For `Fc1ccc(NC(=S)SCc2ccc3c(c2)OCO3)cc1F`, the TGI was 79.7 µM.
The same measure, in the same setting: the figure for `Cc1cn2c(/C=N/N=C(N)N)c(-c3cccc([N+](=O)[O-])c3)nc2s1` is 3.28 µM; for `COC(=O)c1ccccc1NC(=O)C(=O)Cc1nc2c3c(ccc2[nH]c1=O)C(=O)c1ccccc1C3=O` it is 51.5 µM; for `COc1cc2nc3n(c(=O)c2cc1OC)-c1ccc([N+](=O)[O-])cc1C3=O` it is above 100 µM.
Compound `O=C(CC(=O)c1cccc2ccccc12)C(=O)Nc1ccc(Cl)cc1` showed a TGI above 100 µM.
Still for that read-out and setting: the result for `Cc1cnc(NCCCN(C)C)c2c1[nH]c1ccc3cc(O)ccc3c12` reads 2.8 µM.
Compound `COC(=O)CC[N+]1=CCC(c2ccccc2)(c2ccccc2)O1` displayed a concentration for total growth inhibition (TGI) above 100 µM.
Same read-out and setting: the figure for `Clc1ccccc1C(SCc1ccccc1)SCc1ccccc1` is above 100 µM; for `O=C1C=CC(=O)c2c1ccc1c3ccccc3n(CCCCCCCCCCCCn3c4ccccc4c4ccc5c(c43)C(=O)C=CC5=O)c21` it is above 100 µM; for `CC(C)(C)OC(=O)NCCCCC1NC(=O)[C@@H]2Cc3c([nH]c4ccccc34)C(C3CCCCC3)N2C1=O` (stereo not given in full) it is above 100 µM.
The same measure, in the same setting: the figure for `Cc1ccc(-c2n[nH]c(=O)n2N2C(=O)c3ccccc3C2=O)cc1` is above 100 µM.
Take `C=CC1(C)CCC2C(=CCC3C2(C)CC(O)C(O)C3(C)COC2OC(C(=O)O)C(O)C(O)C2O)C1` (stereo not given) (tested in a mixture with another compound): the concentration for total growth inhibition (TGI) was above 100 µM.
Take `CCCCCCCCCCCCCCNC(=O)CCC(NC(=O)c1ccc(N(C)Cc2cnc3nc(N)nc(N)c3n2)cc1)C(=O)NCCCCCCCCCCCCCC` (stereo not given): the TGI was 68.1 µM.
Same read-out and setting: the result for `Cc1ccccc1C(=O)N1CCc2c([nH]c3ccccc23)C1` reads above 100 µM.
The same measure, in the same setting: the result for `Cc1ccsc1C(=S)Nc1ccc(Cl)c(/C=N/OC(C)(C)C)c1` reads above 100 µM.
As to `COc1cc2c(cc1OCCCCN1CCN(CC(=O)Nc3ccc(Cl)cc3C(=O)c3ccccc3Cl)CC1)N=CC1CCCN1C2=O` (stereo not given), the GI50 is 0.433 µM and the TGI was found to be 0.972 µM.
In turn, `COc1ccc(-c2cc(O)c3nc4ccccc4n3c2)cc1` showed a TGI above 100 µM.
The same measure, in the same setting: the figure for `COc1ccc2c(c1)/C(=C/CCN(C)C)c1ccccc1S2` is above 100 µM.
In the case of `CCOC(=O)CSc1c(C(=O)OCC)c(=O)n(-c2ccccc2)c(=S)n1-c1ccccc1`, the TGI was above 100 µM.
Consider `COc1cc(/C=N\NC(=O)CN2CCN(c3cc4c(cc3F)c(=O)c(C(=O)N/N=C/c3cc(OC)c(OC)c(OC)c3)cn4C3CC3)CC2)cc(OC)c1OC`, for which the GI50 is 0.45 µM and the TGI is above 100 µM.
With `C[C@]12CCC(O)CC1=CC[C@@H]1[C@@H]2CC[C@]2(C)C(=O)[C@H](n3ccnc3)C[C@@H]12` (stereo not given in full), the TGI is above 100 µM.
On the same count and under the same terms, the figure for `Cc1ccc([N+](=O)[O-])cc1NC1=NCCO1` is above 100 µM.
Same read-out and setting: the figure for `C=CCN1C[C@H](C)N([C@H](c2ccc(C(=O)NC(CC)CC)cc2)c2cccc(OC)c2)C[C@H]1C` is above 100 µM; for `CNS(=O)(=O)NNS(=O)(=O)c1ccccc1` it is above 100 µM; for `Cc1nc2n(c1/C=C1/C(=O)Nc3cccc(Cl)c31)CCS2` it is above 100 µM.
The same measure, in the same setting: the figure for `O=C1CCCSC(=O)N1Cc1ccccc1` is above 100 µM; for `CCCCCCc1cc2cc(-c3csc(CC#N)n3)c(=O)oc2cc1O` it is above 100 µM; for `CCCCCCCCCCCC(=O)OCCOCCOCCOCCOCCOCc1ccccc1` it is above 100 µM.
As for `COC([CH2][Hg][n]1cnc2c1c(=O)n(C)c(=O)n2C)CN1C(=O)c2ccccc2S1(=O)=O` (stereo not given), the GI50 was above 100 µM and the TGI is above 100 µM.
Regarding `CCCCC#C[I+]c1ccccc1`, the TGI stood at 29.9 µM.
`COc1cccc(-c2cc(-c3cccc(NS(C)(=O)=O)c3)nc(N)c2C#N)c1O`: the GI50 is 0.433 µM and the TGI is above 100 µM.
For `CC(C)CCS(=O)(=O)OCCCCOS(=O)(=O)CCC(C)C`, the TGI was above 100 µM.
As to `Nc1nc(-n2c(-c3ccccc3)nc3c(Br)cc(Br)cc3c2=O)nnc1-c1cccc(Cl)c1Cl`, the GI50 was 2.48 µM and the TGI was found to be 8.22 µM.
Compound `Cc1c(O)c(O)cc[n+]1C1OC(CO)C(O)C1O` (stereo not given) gave a concentration for total growth inhibition (TGI) above 100 µM.
Still for that read-out and setting: the figure for `NC(N)=N/N=C/c1c(-c2ccc(N)cc2)nc2sccn12` is 46.4 µM.
The same measure, in the same setting: the result for `NC1=NCCC1(c1ccccc1)c1ccccn1` (stereo not given) reads above 100 µM; that for `COC(=O)c1cc(=O)nc2sc3cccc(C)c3n12`, above 100 µM; that for `CCOC(=O)C1(C/C=C/CBr)Cc2ccccc2C1=O` (stereo not given), 30.8 µM.
On the same count and under the same terms, the result for `C1CN(c2nc3c(nnc4nc(N5CCOCC5)sc43)s2)CCO1` reads above 100 µM.
For the compound `NS(=O)(=O)OC[C@@H]1C[C@@H](n2ccc3c(NC4CCc5ccccc54)ncnc32)C[C@@H]1O` (stereo not given in full), the GI50 was 15.6 µM and the TGI was above 100 µM.
In turn, `Nc1nc(SCCc2ccccc2)c2[nH]cnc2n1` gave a total growth inhibition concentration (TGI) above 100 µM.
Still for that read-out and setting: the figure for `COc1cc(C(=O)N(C(=S)OCc2ccccn2)c2ccccc2)cc(OC)c1OC` is above 100 µM.
With `COc1cc2c(c(OC)c1OC)-c1ccc(NNC(N)=S)c(=O)cc1[C@@H](NC(C)=O)CC2`, the GI50 is 1.11 µM and the concentration for total growth inhibition (TGI) is above 100 µM.
The compound `CCCN(C(=O)c1ccccc1)C(C#N)c1ccc(C(C#N)N(CCC)C(=O)c2ccccc2)cc1` (stereo not given) came in with a TGI above 100 µM.
Compound `O=[N+]([O-])c1cccc(-c2csc(NNC3=NC/C(=C/c4ccc5c(c4)OCO5)S3)n2)c1` had a total growth inhibition concentration (TGI) above 100 µM.
Regarding `CN(C)c1ccc(/C=C\C2=[N+](C)c3ccccc3C2(C)C)cc1`, the GI50 was 2.16 µM and the total growth inhibition concentration (TGI) was found to be 29.3 µM.
Turning to `COc1ccc(CC2c3cc4c(cc3CCN2C)OCO4)c(C=O)c1OC` (stereo not given), the concentration for total growth inhibition (TGI) was above 100 µM.
For the compound `CCOC(=O)C(SCCO)C(C(=O)OCC)n1cnc2c(=O)[nH]c(NC(C)=O)nc21` (stereo not given), the TGI was above 100 µM.
`OCCN(CCO)c1ncnc2c1ncn2Cc1ccc(CCl)cc1`: the GI50 was 15.6 µM and the concentration for total growth inhibition (TGI) turned out to be 35.5 µM.
For `O=C1CSC(c2ccc(Cl)cc2)N1c1ccc(Oc2ccc(Cl)cc2)c(Cl)c1` (stereo not given), the TGI was 28.7 µM.
Same read-out and setting: the figure for `Nn1c(-c2ccccc2)nn(C(=O)c2ccccc2)c1=O` is above 100 µM.
On to `Cc1c(C(=O)CC(=O)C(=O)Nc2ccccc2C(F)(F)F)[n+](=O)c2ccccc2n1[O-]`, for which the total growth inhibition concentration (TGI) was found to be 67 µM.
Take `C#CCNC(CS)C(=O)O` (stereo not given): the TGI is above 100 µM.
For `COc1ccc2c(c1)sc1nc(-c3ccccc3)c(-c3cccc4ccccc34)n12`, the GI50 is above 22.7 µM and the TGI is above 100 µM.
